Data reported in the supplement of paper PMC10037445.
The full ranking holds about 2,900 compounds; the median of “IRF Lucia reporter activity, fold change vs agonist alone” is about 0.9, and the highest 2% start at about 2.8. The list shows a part of the results.

How the values were obtained:
[1] = test system: RAW-Dual; test: IRF Lucia reporter activity, fold change vs agonist alone; cytotoxicity flag (confluency mask): not cytotoxic; higher = enhanced IRF activity
How it was run: (§1)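 Library stock was pin-tooled at 50 nL into 384-well plates of RAW-Dual macrophages (50,000 cells/well, DMEM), followed 1 h later by a PRR agonist, and the cells were kept at 37 °C, 5% CO2. Supernatant collected after 20 hours was read for IRF by QuantiLuc luminescence and for NF-κB by QuantiBlue absorbance at 620 nm. Reporter activity is fold change over agonist-alone wells, and a well counted as cytotoxic when its IncuCyte confluency was below 70% of agonist controls in both mask sets.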

[2] = test system: RAW-Dual; test: IRF Lucia reporter activity, fold change vs agonist alone; higher = enhanced IRF activity; conditions: library stock concentration (final ~1000-fold dilution): 10 mM; cytotoxicity flag (confluency mask): not cytotoxic; agonist: MPLA (TLR4) […]
How it was run: as §1

[3] = test system: RAW-Dual; test: IRF Lucia reporter activity, fold change vs agonist alone; cytotoxicity flag (confluency mask): cytotoxic (confluency <70% of control); higher = enhanced IRF activity
How it was run: as §1

[4] = agonist: 3'3'-cGAMP (STING) 10 ug/mL

Compound: COc1cc2c(cc1OCCCN1CCCC1)N=C(N)C21CCC1 (library stock concentration (final ~1000-fold dilution): 10 mM)
- IRF Lucia reporter activity [1, 4]: 1.23
- IRF Lucia reporter activity ([1]; agonist: LPS (TLR4) 0.1 ug/mL): 1.01

Compound: COc1cc2c(cc1OCCCN1CCCC1)N=C(N)C21CCC1
- IRF Lucia reporter activity [2]: 1.05

Compound: CC(=O)Oc1cc(C(C)C)c(OCCN(C)C)cc1C.Cl
- IRF Lucia reporter activity [2]: 1.14

Compound: CC(=O)Oc1cc(C(C)C)c(OCCN(C)C)cc1C.Cl (library stock concentration (final ~1000-fold dilution): 10 mM)
- IRF Lucia reporter activity [1, 4]: 0.96
- IRF Lucia reporter activity ([1]; agonist: LPS (TLR4) 0.1 ug/mL): 1.09

Compound: CCN(CC)C(=O)/C(C#N)=C/c1cc(O)c(O)c([N+](=O)[O-])c1 (library stock concentration (final ~1000-fold dilution): 10 mM)
- IRF Lucia reporter activity [1, 4]: 1.01
- IRF Lucia reporter activity ([1]; agonist: LPS (TLR4) 0.1 ug/mL): 0.843

Compound: CCN(CC)C(=O)/C(C#N)=C/c1cc(O)c(O)c([N+](=O)[O-])c1
- IRF Lucia reporter activity [2]: 0.926

Compound: Cc1cc(F)c(Nc2ncnc3cc(OCc4ccccc4)ccc23)cc1O.Cl
- IRF Lucia reporter activity [2]: 0.891

Compound: Cc1cc(F)c(Nc2ncnc3cc(OCc4ccccc4)ccc23)cc1O.Cl (library stock concentration (final ~1000-fold dilution): 10 mM)
- IRF Lucia reporter activity [1, 4]: 0.0598
- IRF Lucia reporter activity ([1]; agonist: LPS (TLR4) 0.1 ug/mL): 0.95

Compound: COc1ccc(NC(=O)c2ccc(C(=N)N(C)C)cc2)c(C(=O)Nc2ccc(Cl)cn2)c1 (library stock concentration (final ~1000-fold dilution): 10 mM)
- IRF Lucia reporter activity [1, 4]: 0.865
- IRF Lucia reporter activity ([1]; agonist: LPS (TLR4) 0.1 ug/mL): 1.15

Compound: COc1ccc(NC(=O)c2ccc(C(=N)N(C)C)cc2)c(C(=O)Nc2ccc(Cl)cn2)c1
- IRF Lucia reporter activity [2]: 1.07

Compound: CCS(=O)(=O)N1CCC(C(C)n2c(C)c(C(=O)NCc3c(OC)cc(C)[nH]c3=O)c3ccccc32)CC1 (stereo not drawn) (library stock concentration (final ~1000-fold dilution): 10 mM)
- IRF Lucia reporter activity [1, 4]: 1.15
- IRF Lucia reporter activity ([1]; agonist: LPS (TLR4) 0.1 ug/mL): 1.12

Compound: CCOc1ccc(CC2NC(=O)CCSSCC(C(=O)N3CCCC3C(=O)NC(CCCN)C(=O)NCC(N)=O)NC(=O)C(CC(N)=O)NC(=O)C(C(C)O)NC(=O)C(C(C)CC)NC2=O)cc1 (stereo not drawn) (library stock concentration (final ~1000-fold dilution): 10 mM water)
- IRF Lucia reporter activity [1, 4]: 1.44
- IRF Lucia reporter activity ([1]; agonist: LPS (TLR4) 0.1 ug/mL): 1.02

Compound: CN1CCc2cc(Nc3ncc(C4CC4)c(NCCCNC(=O)C4CCC4)n3)ccc2C1 (library stock concentration (final ~1000-fold dilution): 10 mM)
- IRF Lucia reporter activity [3, 4]: 0.0101
- IRF Lucia reporter activity ([3]; agonist: LPS (TLR4) 0.1 ug/mL): 0.0124

Compound: Cl.Cl.O=C(O)c1ccc(CN2CCC(CNC3CC3c3ccccc3)CC2)cc1 (stereo not drawn) (library stock concentration (final ~1000-fold dilution): 10 mM)
- IRF Lucia reporter activity [1, 4]: 1.01
- IRF Lucia reporter activity ([1]; agonist: LPS (TLR4) 0.1 ug/mL): 1.31

Compound: Cl.c1ccc(CN(CC2=NCCN2)c2ccccc2)cc1 (library stock concentration (final ~1000-fold dilution): 10 mM)
- IRF Lucia reporter activity [1, 4]: 1.04
- IRF Lucia reporter activity ([1]; agonist: LPS (TLR4) 0.1 ug/mL): 1.19

Compound: Cl.c1ccc(CN(CC2=NCCN2)c2ccccc2)cc1
- IRF Lucia reporter activity [2]: 1.11

Compound: CC(=O)c1ccc2c(c1)Nc1ccccc1S2
- IRF Lucia reporter activity [2]: 1.06

Compound: CC(=O)c1ccc2c(c1)Nc1ccccc1S2 (library stock concentration (final ~1000-fold dilution): 10 mM)
- IRF Lucia reporter activity [1, 4]: 0.979
- IRF Lucia reporter activity ([1]; agonist: LPS (TLR4) 0.1 ug/mL): 1.21

Compound: C=CC(=O)NC1CCOCC1Nc1ncc2cc(-c3c(Cl)c(OC)cc(OC)c3Cl)ccc2n1 (stereo not drawn) (library stock concentration (final ~1000-fold dilution): 10 mM)
- IRF Lucia reporter activity [1, 4]: 0.285
- IRF Lucia reporter activity ([1]; agonist: LPS (TLR4) 0.1 ug/mL): 1.24

Compound: CC(C)Nc1cc(-c2c[nH]c(C(=O)NC(CO)c3cccc(Cl)c3)c2)c(Cl)cn1 (stereo not drawn) (library stock concentration (final ~1000-fold dilution): 10 mM)
- IRF Lucia reporter activity [1, 4]: 0.448
- IRF Lucia reporter activity ([1]; agonist: LPS (TLR4) 0.1 ug/mL): 0.679

Compound: Cn1cc(Nc2nccc(N3CC4CCC(C3)N4C(=O)C3CC3(F)F)n2)cn1 (stereo not drawn) (library stock concentration (final ~1000-fold dilution): 10 mM)
- IRF Lucia reporter activity [1, 4]: 0.223
- IRF Lucia reporter activity ([1]; agonist: LPS (TLR4) 0.1 ug/mL): 0.505

Compound: Oc1cc2c(cc1O)CN(C(=S)NCCc1ccc(Cl)cc1)CCC2 (library stock concentration (final ~1000-fold dilution): 10 mM)
- IRF Lucia reporter activity [1, 4]: 0.0216
- IRF Lucia reporter activity ([1]; agonist: LPS (TLR4) 0.1 ug/mL): 0.153

Compound: Cl.Cn1cc(C(=O)Nc2ccc3c(c2)OCCO3)c2ccccc2c1=O (library stock concentration (final ~1000-fold dilution): 10 mM)
- IRF Lucia reporter activity [1, 4]: 0.791
- IRF Lucia reporter activity ([1]; agonist: LPS (TLR4) 0.1 ug/mL): 0.445

Compound: O=C1Cc2c([nH]c3ccc(Br)cc23)-c2ccccc2N1 (library stock concentration (final ~1000-fold dilution): 10 mM)
- IRF Lucia reporter activity [1, 4]: 0.27
- IRF Lucia reporter activity ([1]; agonist: LPS (TLR4) 0.1 ug/mL): 0.174

Compound: CCc1c(O)cc(O)c(C(=O)c2ccc(OCCN3CCOCC3)c(OC)c2)c1CC(=O)N(CCOC)CCOC (library stock concentration (final ~1000-fold dilution): 10 mM)
- IRF Lucia reporter activity [1, 4]: 1.23
- IRF Lucia reporter activity ([1]; agonist: LPS (TLR4) 0.1 ug/mL): 1.08
